Measurements as given in PubChem BioAssay AID2675 (National Center for Advancing Translational Sciences (NCATS), 2010).
In all, about 280,000 compounds went through this assay and about 100 (0.036%) were called active. Inconclusive means that the source gave no clear call. Such entries were picked first, then a sample of the others. Calls follow the shape of the dose curve; as a rule, active = well fitted inhibition curve with a large enough effect in the signal ratio, with a control signal flat (not every such curve was filed as active); inconclusive = small, poorly fitted or top-dose-only effect, or effect the other way, or a change in a side signal; inactive = no such curve, though single readings can be large or run the other way; the % refers to the signal ratio. Where the call is inconclusive, the potency comes from a doubtful curve fit. “Side channel” marks fits to a control or component signal instead of the main read-out.

The molecules below were run against Muscleblind-like protein 1 (Homo sapiens) (UniProt Q9NR56) (assay: qHTS Assay for Inhibitors of MBNL1-poly(CUG) RNA binding). Conditions: TR-FRET MBNL1-His/biotin-(CUG)12 binding, 665/545 ratio; activity change, negative = inhibition: at 57.5 µM (top of the series).
UniProt Q9NR56, sequence (Q9NR56 whole entry, looked up): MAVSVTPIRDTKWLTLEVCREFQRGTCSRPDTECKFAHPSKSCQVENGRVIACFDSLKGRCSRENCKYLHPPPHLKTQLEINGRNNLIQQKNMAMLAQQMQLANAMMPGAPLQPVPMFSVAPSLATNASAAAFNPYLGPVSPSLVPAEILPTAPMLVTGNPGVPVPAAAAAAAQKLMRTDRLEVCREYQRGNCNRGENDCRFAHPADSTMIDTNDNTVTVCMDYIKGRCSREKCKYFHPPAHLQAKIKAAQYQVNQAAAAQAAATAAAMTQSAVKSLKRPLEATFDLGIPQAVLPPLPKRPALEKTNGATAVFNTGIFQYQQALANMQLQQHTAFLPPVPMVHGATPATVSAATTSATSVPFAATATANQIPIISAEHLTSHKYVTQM
Summary of the method: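 Compound titration spanned 92 nM–58 uM against the MBNL1-His/biotin-(CUG)12 complex. After 60 min at room temperature with 5 nM streptavidin-XL665 and 0.055 ng/ul terbium anti-His, ratiometric 665/545 nm emission (Ex 340 nm) normalized to controls.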
% is scaled to controls: 0 for no effect and ±100 for the full control effect; potency is read from the fitted curve at half-maximal effect; tags tell the direction and shape of the fitted curve or compound fluorescence and quenching.

| SMILES | Potency | activity change, negative = inhibition |
| --- | --- | --- |
| CN(C)CCSc1nc(N)c2c3c(sc2n1)COC(C)(C)C3 | inconclusive: 20 µM [quencher, side channel, single point] | – |
| Cn1ncc(Br)c1NC(=O)c1ccco1 | – | inactive: -10.4% |
| CC(C)(C)c1ccc(C(=O)NCC(=O)OCN2C(=O)c3ccccc3C2=O)cc1 | inconclusive: 39.8 µM [quencher, side channel, single point] | – |
| COc1cccc(-n2nc(-c3ccnn3-c3ccccc3)c(=O)n(C)c2=O)c1 | inconclusive: 20 µM [quencher, side channel, partial curve] | – |
| O=C1c2cccc3c([N+](=O)[O-])c(O)cc(c23)C(=O)N1Nc1ccccc1 | inconclusive: 28.2 µM [quencher, side channel, partial curve] | – |
| NC(=O)Cc1ccc(Nc2nnc(-c3ccc(O)cc3)c3ccccc23)cc1 | – | inconclusive: 23.6% [phenotype inactive] |
| O=C(CSc1ncnc2scc(-c3ccccc3)c12)Nc1ccc(C(=O)O)cc1 | inconclusive: 1.12 µM [inhibitor, full curve] | – |
| CCCCN1C(=O)C2(NNc3ccccc3O2)c2ccccc21 (centres undefined) | inconclusive: 28.2 µM [quencher, side channel, single point] | – |
| CC(=O)c1ccc(NC(=O)NNS(=O)(=O)c2ccc([N+](=O)[O-])cc2)cc1 | inconclusive: 11.2 µM [quencher, side channel, partial curve] | – |
| Nc1[nH]c(=O)[nH]c(=O)c1N=Nc1ccccc1Cl | inconclusive: 1.58 µM [quencher, side channel, full curve] | – |
| COCCNc1nc(=S)[nH]c2cc(OC)c(OC)cc12 | – | inactive: -7.99% |
| C/C(=N\NC(=O)C(=O)Nc1ccc(C)c(Cl)c1)c1ccncc1 | inconclusive: 0.0891 µM [fluorescent, side channel, full curve, poor fit] | – |
| CNC(=S)N1N=C(c2ccc(C)cc2)CC1c1ccc(N(C)C)cc1 (centres undefined) | inconclusive: 35.5 µM [quencher, side channel, single point] | – |
| O=[N+]([O-])c1cc(/C=N\Nc2nccs2)ccc1O | inconclusive: 28.2 µM [quencher, side channel, single point] | – |
| CC(/C=N/NC(=O)c1ccccn1)=C\c1ccco1 | inconclusive: 22.4 µM [quencher, side channel, partial curve] | – |
| COC(=O)c1ccc(C(=O)OC)c(NC(=O)CN2CCCCC2)c1 | – | inactive: -3.73% |
| COc1ccc(C(=O)/C(=C/O)N=Nc2ccc(F)cc2)cc1 | inconclusive: 14.1 µM [quencher, side channel, partial curve] | – |
| COC(=O)c1cc2c(C)nn(-c3ccccc3)c2s1 | – | inactive: 18.4% |
| Cc1ccc2nc(C)cc(C(=O)OCC(=O)Nc3c(C)n(C)n(-c4ccccc4)c3=O)c2c1 | inconclusive: 31.6 µM [quencher, side channel, single point] | – |
| Cn1c(=O)c2c(ncn2CC(=O)OCC(=O)NCc2ccc(Cl)cc2)n(C)c1=O | inconclusive: 0.126 µM [fluorescent, side channel, partial curve, poor fit] | – |

| SMILES | Potency | activity change, negative = inhibition |
| --- | --- | --- |
| COc1ccccc1NC(=O)CN1CCN(c2ccccc2OC)CC1 | – | inactive: 2.26% |
| O=c1[nH]c2ccccc2[n+]([O-])c1-c1ccccc1 | inconclusive: 14.1 µM [quencher, side channel, partial curve] | – |
| Cc1ccc(-c2ccc(/C=N/O)o2)cc1[N+](=O)[O-] | inconclusive: 20 µM [quencher, side channel, partial curve] | – |
| CCc1nnc(N/N=C/c2cc(Br)c(O)cc2O)n1N | inconclusive: 31.6 µM [quencher, side channel, single point] | – |
| N#Cc1c(-c2ccccc2)c(-c2ccccc2)nn(CC(=O)NNC(=O)Nc2ccccc2)c1=O | inconclusive: 14.1 µM [quencher, partial curve] | – |
| CCOc1ccc(CN(C)C(=O)c2ccc3ccccc3n2)cc1 | – | inactive: 4.11% |
| Cc1cc(C(=O)NCCc2ccccc2)ccc1[N+](=O)[O-] | inconclusive: 35.5 µM [quencher, side channel, single point] | – |
| CNC1(C(N)=O)CCNCC1 | – | inactive: 1.31% |
| CN1CCN(C2=Nc3c(Cl)cc(Cl)c4cccc2c34)CC1 | inconclusive: 15.8 µM [quencher, side channel, partial curve] | – |
| O=S(=O)([O-])CCC[n+]1c(/C=C\Nc2ccccc2)oc2ccc(-c3ccccc3)cc21 | – | inactive: 17.7% |
| CCOC(=O)C(C)Sc1nc2c(c(=O)[nH]c(=O)n2C)n1CCc1ccccc1 (centres undefined) | – | inactive: 0.452% |
| CC(=O)N1CCN(c2ccc(Oc3ccc([N+](=O)[O-])c(C(F)(F)F)c3)cc2)CC1 | inconclusive: 17.8 µM [quencher, partial curve] | – |
| COc1ccc2c(c1)c(C)cc[n+]2Cc1ccccc1 | inconclusive: 12.6 µM [quencher, side channel, partial curve] | – |
| CC(OC(=O)c1ccncc1)C(=O)Nc1cccc([N+](=O)[O-])c1 (centres undefined) | inconclusive: 35.5 µM [quencher, side channel, partial curve] | – |
| COc1ccc(OC)c(C2=NS(=O)(=O)N(C)C(C(=O)Nc3cccc(C(C)=O)c3)=C2)c1 | inconclusive: 14.1 µM [quencher, side channel, partial curve] | – |
| O=c1[nH]c(CN2CCN(Cc3ccc4c(c3)OCO4)CC2)nc2ccccc12 | inconclusive: 79.4 µM [inhibitor, single point] | – |
| O=C(NCCCn1ccnc1)c1ccc2nccnc2c1 | inconclusive: 39.8 µM [quencher, single point] | – |
| CN(C)N=C1c2cc(S(=O)(=O)N(C)C)ccc2-c2ccc(S(=O)(=O)N(C)C)cc21 | inconclusive: 3.55 µM [quencher, side channel, single point] | – |
| COC(=O)CCCC1=CC2=C(c3ccccc3)C(=O)C(C)(OC(=O)C3CCCC3)C(=O)C2=CN1C1CCCC1 (centres undefined) | inconclusive: 17.8 µM [quencher, side channel, partial curve] | – |
